Assay results from patent US20130189747A1, “Compositions Comprising A Polypeptide Having Cellulolytic Enhancing Activity And A Sulfur-Containing Compound And Uses Thereof” (priority 2010, published 2013).

B1: T. reesei GH61B polypeptide: GH61B polypeptide having cellulolytic enhancing activity (SEQ ID NO: 16), recombinantly prepared in Aspergillus oryzae JaL250 (protein, listed as Trichoderma reesei)
chain: MKSCAILAALGCLAGSVLGHGQVQNFTINGQYNQGFILDYYYQKQNTGHFPNVAGWYAEDLDLGFISPDQYTTPDIVCHKNAAPGAISATAAAGSNIVFQWGPGVWPHPYGPIVTYVVECSGSCTTVNKNNLRWVKIQEAGINYNTQVWAQQDLINQGNKWTVKIPSSLRPGNYVFRHELLAAHGASSANGMQNYPQCVNIAVTGSGTKALPAGTPATQLYKPTDPGILFNPYTTITSYTIPGPALWQG

What was measured:
Type in all cases: biochemical
[1] = test system: Trichoderma reesei cellulase composition; assay: Hydrolysis of milled unwashed pretreated corn stover (PCS) by the Trichoderma reesei cellulase composition with/without GH61 polypeptide and sulfur-containing compound; conditions: T. aurantiacus GH61A polypeptide, L-cysteine 5 mM present
Description: (§1) The effect of various sulfur-containing compounds on the cellulolytic enhancing activity of GH61 polypeptides was evaluated according to the procedures described below.

[2] = test system: Trichoderma reesei cellulase composition; assay: Hydrolysis of milled washed pretreated corn stover (PCS) by the Trichoderma reesei cellulase composition with/without GH61 polypeptide and sulfur-containing compound
Description: as §1

[3] = test system: Trichoderma reesei cellulase composition; assay: Hydrolysis of AVICEL® (microcrystalline cellulose) by the Trichoderma reesei cellulase composition with/without GH61 polypeptide and sulfur-containing compound; conditions: for GH61 effect (Equation 4): 1 and 3 days
Description: as §1

| Molecule | GH61 effect (Equation 4) ([1]; 7 days) | GH61 effect (Equation 4) ([1]; FIG. 5) | sulfur-containing compound effect(no GH61) ([2]; PCS, L-cysteine 1 mM, no GH61 polypeptide, 1 and 3 days, FIG. 4A) | Change of the GH61 effect as L-cysteine concentration was increased ([2]; washed milled PCS, day 1, L-cysteine 0, 0.01, 0.1, 1, 10 mM, T. aurantiacus GH61A polypeptide 5.6, 14 or 28 mg per liter, FIG. 4B) | GH61 effect (Equation 4) ([3]; AVICEL®, L-cysteine 10 mM, T. aurantiacus GH61A polypeptide 14 mg per liter (25% w/w of cellulase), FIG. 3A) | Change of the GH61 effect as L-cysteine concentration was increased ([3]; AVICEL®, day 1, L-cysteine 0, 0.01, 0.1, 1, 10 mM, T. aurantiacus GH61A polypeptide 5.6, 14 or 28 mg per liter, FIG. 3B) | GH61 effect (Equation 4) ([3]; AVICEL®, L-cysteine 5 mM present, GH61 polypeptide at 2 mg per g cellulose, FIG. 6I) | Effect of the GH61 polypeptide on hydrolysis of AVICEL® (microcrystalline cellulose) by the T. reesei cellulase composition ([3]; in the absence of a sulfur-containing compound) |
| --- | --- | --- | --- | --- | --- | --- | --- | --- |
| N[C@@H](CS)C(=O)O [L-cysteine] | 1.36±0.05 | greater than 1 | < 1 | larger | > 1 | larger |  |  |
| B1 |  |  |  |  |  |  | greater than 1 | did not enhance |
